The campaign covered roughly 310,000 compounds. About 2,200 (0.71%) showed an effect of 50% or more. Effects have a minus sign here. The list shows a part of the results.
Target: human ether-à-go-go-related gene (hERG) potassium channel (human, UniProt Q12809)
Experiment: primary screen, population patch clamp on CHO cells stably expressing hERG

Sequence of human ether-à-go-go-related gene (hERG) potassium channel (Q12809 whole entry, looked up): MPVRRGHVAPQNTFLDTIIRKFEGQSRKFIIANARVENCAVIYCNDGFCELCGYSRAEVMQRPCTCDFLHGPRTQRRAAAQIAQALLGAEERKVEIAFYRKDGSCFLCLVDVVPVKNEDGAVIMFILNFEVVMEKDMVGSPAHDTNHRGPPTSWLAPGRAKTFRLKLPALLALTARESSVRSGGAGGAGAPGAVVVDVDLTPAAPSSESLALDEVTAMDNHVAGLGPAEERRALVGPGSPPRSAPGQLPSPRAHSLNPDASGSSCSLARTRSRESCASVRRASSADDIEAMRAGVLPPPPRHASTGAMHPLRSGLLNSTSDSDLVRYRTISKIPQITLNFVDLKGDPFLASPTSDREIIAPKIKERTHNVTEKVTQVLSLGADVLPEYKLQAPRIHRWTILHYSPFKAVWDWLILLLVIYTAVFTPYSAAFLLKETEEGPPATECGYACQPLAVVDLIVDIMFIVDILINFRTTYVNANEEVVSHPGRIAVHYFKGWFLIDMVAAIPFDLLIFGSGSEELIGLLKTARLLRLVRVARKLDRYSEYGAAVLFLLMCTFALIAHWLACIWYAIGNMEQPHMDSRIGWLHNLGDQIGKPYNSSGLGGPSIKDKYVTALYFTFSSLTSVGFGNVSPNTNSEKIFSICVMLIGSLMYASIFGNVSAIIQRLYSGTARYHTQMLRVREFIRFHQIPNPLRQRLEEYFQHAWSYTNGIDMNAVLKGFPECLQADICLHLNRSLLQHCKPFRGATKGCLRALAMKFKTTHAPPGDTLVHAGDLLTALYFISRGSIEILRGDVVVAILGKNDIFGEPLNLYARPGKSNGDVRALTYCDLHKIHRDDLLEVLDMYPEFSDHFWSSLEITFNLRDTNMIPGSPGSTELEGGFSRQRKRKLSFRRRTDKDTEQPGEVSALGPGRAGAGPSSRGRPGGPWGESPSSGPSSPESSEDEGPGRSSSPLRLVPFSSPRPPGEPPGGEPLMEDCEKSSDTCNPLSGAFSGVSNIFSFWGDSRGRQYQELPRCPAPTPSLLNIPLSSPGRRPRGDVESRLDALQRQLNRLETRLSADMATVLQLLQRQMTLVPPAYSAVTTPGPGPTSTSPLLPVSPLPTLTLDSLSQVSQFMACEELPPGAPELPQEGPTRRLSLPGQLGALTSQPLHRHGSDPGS

| Structure (SMILES) | hERG current change (%, negative = inhibition) at 1uM |
| --- | --- |
| O=[N+]([O-])c1ccc(C2=Nn3c(Cn4nnc5ccccc54)nnc3SC2)cc1 | -3.66% |
| COc1ccc(OCC(=O)Nc2ccc(N3CCC(C)CC3)cc2)cc1 | 11.6% |
| CCC(=O)Nc1ccc(Cl)c(-c2nc3ncccc3o2)c1 | 2.63% |
| O=C(O)CCn1cc(/C=C2\NC(=S)N(c3ccccc3)C2=O)c(-c2ccc(Br)cc2)n1 | 17.8% |
| CC(Oc1ccccc1F)c1ccnc2nc(/N=C/N(C)C)nn12 (stereo not drawn) | 6.48% |
| CC(C)Nc1ncnc2c1nnn2Cc1ccccc1 | 12.5% |
| CC12CCC(C(=O)NCc3ccco3)(OC1=O)C2(C)C (stereo not drawn) | 6.55% |
| Cc1cccc(C)c1NC(=O)CNC(=O)c1cn(-c2ccccc2)nc1-c1ccccc1 | 12.4% |
| Cc1cc(=O)oc2cc(OCC(=O)NCCN3CCOCC3)ccc12 | 16% |
| O=C(Nc1ccc(Cl)cc1)N1CCN(c2ccc3nnc(-c4ccc(F)cc4)n3n2)CC1 | 11.5% |
| CC1=C(C(=O)N2CCCC(N3CCN(c4ccccc4F)CC3)C2)OCCO1 (stereo not drawn) | 13.3% |
| CC(=O)c1ccc(OCC(=O)Nc2ccc3nc(C)sc3c2)cc1 | 5.62% |
| CCOc1ccc(NC(=O)C(=O)NCCN2CCN(S(=O)(=O)c3ccc(C)cc3)CC2)cc1 | 11.6% |
| CCCNc1c(NS(=O)(=O)c2cccc(C#N)c2)c(=O)oc2ccccc12 | -39.7% |
| COC(=O)CN1C(=O)C2(C(C#N)=C(N)Oc3n[nH]c(-c4cccs4)c32)c2ccccc21 (stereo not drawn) | 5.2% |
| COC(=O)c1oc(-c2ccc(Cl)cc2)nc1C | 8.82% |
| CC[C@]12CCCN3CCc4c(n(c5ccccc45)[C@](O)(C(=O)OC)C1)[C@@H]32 | -69.4% |
| O=C(Nc1ccc(Cl)c(C(F)(F)F)c1)c1ccncc1 | 8.86% |
| COc1cc(C(=O)Nc2sc3c(c2C#N)CCN(C(C)=O)C3)cc(OC)c1OC | 10.4% |
| COc1cc(C2C3=C(CC(C)(C)CC3=O)Nc3c2c(=O)[nH]c(=O)n3Cc2ccccc2)ccc1O (stereo not drawn) | 1.5% |
| COc1cc(CNCCc2c[nH]c3ccccc23)cc(Cl)c1OCC(N)=O.Cl | -1.47% |
| CC(Nc1ncnc2sccc12)c1ccccc1 (stereo not drawn) | 13% |
| CC1CCCC(C)N1C(=O)COC(=O)CNC(=O)c1sc2ccccc2c1Cl (stereo not drawn) | -5.15% |
| Cc1ccc(C(C(=O)NC(C)(C)C)N(Cc2ccco2)C(=O)Cn2nnc(-c3cccs3)n2)cc1 (stereo not drawn) | 18.3% |
| CSc1ccccc1C(=O)NC1CCSc2ccccc21 (stereo not drawn) | 4.6% |
| O=C(COC(=O)c1ccccc1C(=O)N1CCN(c2ccccc2)CC1)Nc1ccccc1 | 6.1% |
| COc1ccc(-c2csc(NC(=O)C3CC(=O)N(Cc4ccco4)C3)n2)cc1 (stereo not drawn) | 6.42% |

| Structure (SMILES) | hERG current change (%, negative = inhibition) at 1uM |
| --- | --- |
| CCCCCCCNC(=O)C1(CC2CC(c3ccc(Cl)cc3)=NO2)CCN(C(=O)c2ccccc2)CC1 (stereo not drawn) | 7.86% |
| COc1ccc(C(=O)c2coc3ccc(O)c(CN(C)C)c23)cc1 | -29.3% |
| COCCCNC(NC(=O)c1ccc(C)cc1)C(Cl)(Cl)Cl (stereo not drawn) | 4.05% |
| CCOC(=O)c1ccccc1NC(=O)CN1CCC(n2nnc3cc(C(F)(F)F)ccc32)CC1 | 7.58% |
| CCOc1ccc(C(=O)NCC(=O)OCCN2C(=O)c3ccccc3C2=O)cc1OCC | 5.56% |
| COc1cc2[nH]c(=O)n(CCC(=O)NCCCN3CCN(c4ccccc4F)CC3)c(=O)c2cc1OC | 0.776% |
| CCCCN1C(=S)SC(C)(C)C1/[N+]([O-])=C/c1ccc(S(=O)(=O)NC)cc1 (stereo not drawn) | 10.5% |
| CCOc1cc(/C=N/NC(=O)c2cc(-c3cccnc3)nc3ccccc23)ccc1O | 15.9% |
| O=C(O)CCCC(=O)Nc1ccccc1Oc1ccccc1 | 7.99% |
| COc1ccc(N/C=C2\CCc3ccccc3C2=O)cc1 | 9.52% |
| Cc1ccccc1N1C(=O)C(Cl)=C(N2CCCCCC2)C1=O | 4.97% |
| Cc1ccc2c(=O)cc(C(=O)NCc3ccccc3)oc2c1C | 12.1% |
| CCCSc1nnc(-c2c[nH]c3ccccc23)n1C | 9.4% |
| COC(=O)[C@@H]1C(c2c(OC)cc(OC)cc2OC)=NO[C@H]1C(=O)OC | 12.4% |
| COCCn1nnnc1C(c1ccc(OC)c(OC)c1)N1CCN(c2nc3ccccc3s2)CC1 (stereo not drawn) | 2.83% |
| CCOC(=O)C1=C(C)N(CC)C(=S)NC1c1ccccc1OC(F)F (stereo not drawn) | 4.8% |
| O=c1c2ccccc2nc2n1C(CSCc1cccc(C(F)(F)F)c1)CS2 (stereo not drawn) | -11.3% |
| COc1ccccc1NC(=O)COC(=O)C1C2CC3OC(=O)C1C3C2 (stereo not drawn) | 14.4% |
| CCC(C(=O)OC)n1cnc2c(nnn2-c2ccc(C)cc2)c1=O (stereo not drawn) | 3.12% |
| COCc1cc(Sc2cccc(Cl)c2Cl)nc(-c2ccccc2)n1 | 9.46% |
| CC1=C(C(=O)OCc2ccccc2)C(c2ccccc2OC(F)F)NC(=O)N1 (stereo not drawn) | -0.0598% |
| Cc1cc(NC(=O)c2ccccc2)ncc1NC(=O)c1ccco1 | 11.8% |
| COc1cccc(NC(=O)CSc2nnc(CNC(=O)c3ccco3)n2C)c1 | 1.34% |
| CCN(CC(=O)NCc1ccc(F)cc1)C(=O)CCNS(=O)(=O)c1cccc(C)c1 | -15.2% |
| CCCCCC(CC(=O)NO)C(=O)NC(C(=O)N1CCCC1CO)C(C)C (stereo not drawn) | 13.7% |
| O=C(c1cc(COc2ccccc2)on1)N1CCCC(OCc2cccnc2)C1 (stereo not drawn) | 8.98% |
| CCOc1ccc(NC(=S)N(CCc2c(C)[nH]c3ccc(C)cc23)Cc2ccco2)cc1 | 7.46% |

Source: article PMC4336329 (PLoS ONE, 2015)
